Results: PubChem BioAssay AID1159614 (National Center for Advancing Translational Sciences (NCATS), 2016)
Out of some 45,000 compounds screened, about 65 (0.1%) were called active. Calls follow the shape of the dose curve; as a rule, active = well fitted activation curve with a large enough effect; inconclusive = small, poorly fitted or top-dose-only effect; inactive = no such curve, though single readings can be large or run the other way. The list shows a part of the results.

The compounds below were run against Galactocerebrosidase (Homo sapiens) (UniProt P54803) (assay: A Novel Cell-Based Assay to Identify Small Molecules for B -Galactocerebrosidase). Details: 145M-Twi-hGALC-G270D cells, HMU-beta-Gal fluorescence, 48 h; series mostly up to 57.5 µM; activation: at the top concentration.
UniProt P54803, sequence (P54803 whole entry, looked up): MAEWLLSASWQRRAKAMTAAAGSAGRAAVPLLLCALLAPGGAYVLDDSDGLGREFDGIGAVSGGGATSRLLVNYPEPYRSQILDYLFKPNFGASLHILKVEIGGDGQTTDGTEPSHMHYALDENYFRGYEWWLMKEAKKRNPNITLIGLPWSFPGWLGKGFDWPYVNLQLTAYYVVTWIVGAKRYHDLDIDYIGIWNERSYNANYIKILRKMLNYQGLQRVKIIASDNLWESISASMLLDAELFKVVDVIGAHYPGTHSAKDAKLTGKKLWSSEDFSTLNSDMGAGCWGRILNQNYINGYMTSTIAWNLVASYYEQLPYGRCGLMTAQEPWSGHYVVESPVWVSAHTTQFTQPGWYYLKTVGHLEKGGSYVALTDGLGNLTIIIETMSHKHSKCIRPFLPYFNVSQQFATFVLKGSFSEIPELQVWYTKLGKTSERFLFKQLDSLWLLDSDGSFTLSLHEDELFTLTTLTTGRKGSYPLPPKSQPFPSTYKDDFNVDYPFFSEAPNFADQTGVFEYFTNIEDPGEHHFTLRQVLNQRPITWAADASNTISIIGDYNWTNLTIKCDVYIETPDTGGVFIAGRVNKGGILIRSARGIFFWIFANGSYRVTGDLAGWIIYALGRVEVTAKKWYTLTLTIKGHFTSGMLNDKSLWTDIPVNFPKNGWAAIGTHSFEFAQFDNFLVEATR
Method in brief: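 qHTS, 1536-well; 145M-Twi-hGALC-G270D cells (WT line also made) in DMEM/F12 + 10% FBS; compound incubation on live cells; HMU-β-gal 0.1 mM final, pH 5.2, NaTC; carbonate stop; fluorescence increase = enhanced residual activity.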
Also: 0% is about no effect; nearly all actives have a fitted effect of over 65% in size.

activation, inactive:
CCN(C(=O)CCS(=O)(=O)c1ccc2c(c1)CCN2C(C)=O)c1cccc(C(F)(F)F)c1 -7.92%
CCCCc1ccc(Nc2cc(C)nc(-n3nc(C)cc3C)n2)cc1 -5.35%
COc1cc(OC)cc(C(=O)Nc2ccc3nc4c(c(Nc5ccc(OC)c(OC)c5)c3c2)CCCC4)c1 2.39%
O=C(Nc1ccc(-c2nc3ccccc3o2)c(O)c1)c1cc(Cl)ccc1Cl 1.44%
CCN1CCc2c(sc(NC(=O)c3ccc(S(=O)(=O)N(C)C4CCCCC4)cc3)c2C(N)=O)C1 -24%
O=C(/C=C\c1ccc2c(c1)OCO2)NC1CC(=O)N(c2ccccc2)C1 (centres undefined) -11.7%
CSc1ccc(CNC(=O)Cn2c(-c3cccs3)cc3cc(F)ccc32)cc1 -9.42%
CC(=O)O[C@]1(C(C)=O)CC[C@H]2[C@@H]3C=C(Cl)C4=CC(=O)[C@@H]5C[C@@H]5[C@]4(C)[C@H]3CC[C@@]21C -22.4%
CCCCNc1nc2c(-c3cccc(C)c3)nnn2c2ccccc12 -15.1%
COc1cc(C(=O)N2CCNC(=O)C2CC(=O)Nc2ccc(C)c(C)c2)cc(OC)c1OC (centres undefined) -8.44%
Cc1ccccc1-c1nnc(SCC(=O)N(C)c2ccccc2)o1 -13.7%
Cc1ccc(CNC(=O)CCc2c(C)nc3c(-c4ccc(F)cc4)c(C)nn3c2C)cc1 -17.7%
COC(=O)c1ccc(NC(=O)Cn2ccn3nc(-c4ccc(OC)cc4)cc3c2=O)cc1 -14.1%
COc1ccc2c(c1)c1c(c(=O)n(-c3ccccc3C)c(=O)n1CC(N)=O)n2C -6.78%
CCCN(CCC)C(=O)Cn1c(=O)n(CCCCCC(=O)Nc2ccccc2)c(=O)c2sccc21 -9.22%
Cc1cccc(OCC(=O)Nc2cccc(C(=O)OCc3cc(=O)n4nc(C(C)C)sc4n3)c2)c1 -15.4%
Cc1ccc(/C=C/c2onc(C)c2S(=O)(=O)N2CCC(C(=O)Nc3ccc(OC(F)(F)F)cc3)CC2)cc1 -19.9%
Cc1c(C(=O)OCc2ccccc2)[nH]c2c1C(=O)CC(c1ccc(N(C)C)cc1)C2 (centres undefined) -22%
Cc1nn2c3c(cnc2c1-c1ccc(Cl)cc1)C(=O)CC(c1ccc(C(C)C)cc1)C3 (centres undefined) -15.2%
COc1ccc(NC(=O)CN2C(=O)C(C)(C)c3cc(S(=O)(=O)N4CCCCC4)ccc32)cc1Cl -14.7%
CCc1sc(Nc2cccc(Cl)c2)nc1-c1cc2cccc(OC)c2oc1=O -9.59%
COC(=O)C1=C(C)NC(=O)NC1c1cn(-c2ccccc2)nc1-c1ccc(OC)c(Br)c1 (centres undefined) -27%
CCCn1c(COc2cccc(C)c2)nc2ccccc21 -13.1%
O=c1oc2cc(O)ccc2cc1-c1nc(-c2ccc(Cl)c(Cl)c2)cs1 -16.1%
COc1cccc(-n2c(SCC(=O)c3ccccc3)nc3c([nH]c4ccccc43)c2=O)c1 -18.3%
Cc1ccc(S(=O)(=O)C(CNC(=O)COc2ccccc2)c2cccs2)cc1 (centres undefined) -7.04%
CCOc1ccc(NC(=O)CSc2oc(-c3cccs3)nc2S(=O)(=O)c2ccc(C)cc2)cc1 -22.3%
CCn1nc(C)c2c(-c3ccccc3)cc(=O)n(C(C)C(=O)Nc3cccc(F)c3)c21 (centres undefined) -16.4%
CCc1ccc(NC(=O)C(=O)NCCc2csc(-c3cccc(F)c3)n2)cc1 -13%
Cc1ccc(C)c(Nc2nnc(-c3ccc(C)c(S(=O)(=O)N4CCN(C)CC4)c3)c3ccccc23)c1 -16.1%
Cc1ccc(C2=CC(c3ccccc3C)n3c(nc4ccccc43)N2)cc1 (centres undefined) -9.58%
COc1ccccc1NC(=O)c1sc2nc3c(c(C(F)(F)F)c2c1N)CN(C(C)=O)CC3 -10.8%
O=C(COc1ccc(Cl)cc1)NCC(c1ccco1)S(=O)(=O)c1ccccc1 (centres undefined) -6.37%
Cc1ccccc1CCNC(=O)c1ccc(NC(=O)N2CC(C)Sc3ccccc32)cc1 (centres undefined) -0.744%
Cc1ccn2c(Nc3ccccc3C)c(-c3ccc(N4CCOCC4)cc3)nc2c1 -7.76%
Cc1cc(C)c(NC(=O)CSc2n[nH]c(-c3ccccc3Cl)n2)c(C)c1 -34.3%
Cc1nn(-c2ccc(N3CCOCC3)nn2)c(C)c1CCC(=O)NCc1ccccc1 -9.27%
CN(C)CCNC(=O)CN1N=C(c2ccccc2)CCC1=O -18.5%
COc1ccc(N2CCN(C(=O)C3CCN(Cc4nc(-c5ccc(Cl)cc5)oc4C)CC3)CC2)cc1 -9.71%
C=C(C)Cn1c(=O)c2c(nc3n2CCN3c2cc(C)cc(C)c2)n(C)c1=O -2.15%
O=C(O)c1ccccn1 -17.9%
COc1ccc(NC(=O)Cn2c(=O)cc(C)c3c(C)nn(C)c32)cc1 -14.8%
COc1ccc(CNc2nc(-c3ccc(OC)cc3)cc(C(F)(F)F)n2)cc1 2.73%
COc1ccc2c(c1)CC(C(=O)NCCN1CCN(c3ccccc3F)CC1)CO2 (centres undefined) -21.1%
CCCC(=O)N1CCc2cc(OC)c(OC)cc2C1COc1ccc2c(C)cc(=O)oc2c1 (centres undefined) -4.52%
Cc1ccc(Cl)cc1N1CCN(C(=O)c2cnn(C(C)(C)C)c2C2CCN(C(=O)OC(C)(C)C)CC2)CC1 -7.59%
CCOc1ccc(NC(=O)Cn2cc(C(=O)c3ccc(CC)cc3)c(=O)c3cc4c(cc32)OCO4)cc1 -11%
CCCSc1ncc(Cl)c(C(=O)Nc2ccc(S(=O)(=O)N3CCC(C)CC3)cc2)n1 -10.3%
COc1ccc(NC(=O)c2cnc(Nc3ccc(C)c(Cl)c3)c3ccccc23)c(OC)c1 -16%
Cn1nnnc1SCCCNCc1cccc(OCc2ccccc2F)c1 -15.5%
Cc1ccc(/C=C(\C#N)C(=O)Nc2ccc(Br)cc2)o1 -11%
O=C(Cn1cc(SCc2ccc(Br)cc2)c2ccccc21)N1CCCCC1 -3.46%
O=C(Nc1c(C(=O)c2ccc(Cl)cc2)oc2ccccc12)c1cc(=O)c2ccccc2o1 0.749%
CCC(Sc1ncc(S(=O)(=O)c2ccc(C)cc2)c(=O)[nH]1)C(=O)Nc1cc(C)ccc1C (centres undefined) 1.27%
CCc1ccc(NC(=O)CN2CCN(C3CCCCC3)C(=O)C2=O)cc1 -16.9%
CCN(C(=O)CSc1nc2ccccc2n1Cc1ccc(C(=O)OC)cc1)c1ccccc1 -17.3%
COc1ccc(NC(=O)c2ccco2)cc1NC(=O)c1ccc(C)c(C)c1 -1.85%
CCc1nc2ccc(C(=O)NCc3ccc(N(C)C)cc3)cc2nc1CC -16.8%
Cc1ccc2oc(=O)c(S(=O)(=O)c3ccc(F)cc3)cc2c1 -17.6%
COc1ccc(CCN2C(=O)NC(NC(=O)c3ccccc3OC)(C(F)(F)F)C2=O)cc1OC (centres undefined) -9.67%
Nc1nnc(SCC(=O)Nc2cccc(F)c2)s1 -9.44%
O=C(O)COCCN1CCN(C(c2ccccc2)c2ccc(Cl)cc2)CC1 (centres undefined) -10.1%
CCOc1ccc(NC(=O)CCc2nc3cccnc3n2Cc2ccc(OC)cc2)cc1 -6.38%
Cc1ccc(NC(=O)C2CCCN(c3cnccn3)C2)cc1Cl (centres undefined) -8.83%
Cc1ccc(CS(=O)Cc2ccc(C(=O)NCc3ccccc3Cl)o2)cc1 (centres undefined) -12.7%
Cc1ccc(S(=O)(=O)c2nnn3c2nc(NCc2ccccc2)c2sccc23)cc1 -21.3%
CC(C)c1ccc(NC(=O)C2CCN(S(=O)(=O)c3ccc(Br)s3)CC2)cc1 2.01%
Clc1ccc(Nc2nc(-c3ccccc3)c3ccccc3n2)c(Cl)c1 -9.61%
O=S(=O)(c1cc(Br)c(Br)s1)N1CCN(c2ccccc2)CC1 -15.2%
COc1ccccc1C(=O)Nc1cccc(OCc2cc(=O)n3c(C)csc3n2)c1 -8.07%
CCOc1ccccc1NC(=O)C(=O)c1cc(C)n(-c2cccc(C)c2C)c1C 14%
COc1ccccc1NC(=O)C1=C(C)Nc2nc(SCc3ccccc3F)nn2C1c1ccncc1 (centres undefined) 8.65%
CC(C)Cc1nn2c(=O)cc(COC(=O)c3ccccc3NC(=O)c3cccs3)nc2s1 -12.4%
CN1C[C@H](C(=O)N[C@]2(C)O[C@@]3(O)[C@@H]4CCCN4C(=O)[C@H](Cc4ccccc4)N3C2=O)C[C@@H]2c3cccc4[nH]cc(c34)C[C@H]21 -13.9%
COc1ccc2c(c1)CCc1c(C(=O)Nc3cnn(Cc4ccc(Cl)cc4Cl)c3)noc1-2 -9.23%
COc1cccc(NC(=O)CCSc2nc(-c3ccco3)cc(C(F)(F)F)n2)c1 -13.6%
COc1ccc(-c2noc(N3CCN(c4ccc(Cl)cc4)CC3)n2)cc1OC -14.5%
CCc1nn2c(=O)cc(COC(=O)c3cccc(NC(=O)COc4ccccc4)c3)nc2s1 -12.5%
CCOc1ccc(CCNC(=O)c2cc3cc4cc(OC)ccc4nc3s2)cc1OCC -9.78%
COc1ccc(CNC(=O)C2CCN(S(=O)(=O)c3ccc4nc5c(c(C(=O)O)c4c3)CCCC5)CC2)cc1 -18.1%
Cc1cc(C)cc(NC(=O)Cn2cc(C(=O)c3ccncc3)c(=O)c3cc(C)c(C)cc32)c1 -7.73%
Cc1cccc(NC(=O)C2CCN(S(=O)(=O)c3ccc4[nH]c5c(c4c3)CCCCC5)CC2)c1 -17.9%
CCc1cccc(C)c1NC(=O)C1CCN(c2nnc(C)c3c(C)n(-c4ccccc4)nc23)CC1 -13.9%
CN(c1ccccc1)S(=O)(=O)c1nnc(NC(=O)c2ccco2)s1 -19.6%
Cc1ccccc1NC(=O)c1cc2sccc2n1Cc1ccc(F)cc1 -17.5%
CCCCCn1c(=O)[nH]c2cc(C(=O)N3CCN(c4cccc(Cl)c4)CC3)ccc2c1=O -7.35%
COc1ccc(OC)c(CNC(=O)c2cc(S(=O)(=O)N3CCC(C)CC3)cn2C)c1 5.48%
CCOC(=O)CCn1c(=O)c2cccn2c2cccnc21 -10.7%
COc1ccc(NC(=O)CCc2nc3c(C)nn(-c4ccc(C)cc4)c3n(C)c2=O)c(OC)c1 -12.7%
CSc1nn(Cc2ccccc2C)c(NC(C)=O)c1S(=O)(=O)c1ccc(C)cc1 -9.02%
COc1ccccc1C(=O)Nc1ccc2nc(SCC(=O)N3CCCC3)sc2c1 -6.36%
Cc1ccc2nc(-c3ccsc3)c(Nc3ccc(C(C)C)cc3)n2c1 -13.6%
O=C(CCS(=O)(=O)c1nc(-c2cccs2)cc(C(F)(F)F)n1)Nc1ccc(Br)cc1 -15.3%
Cc1ccc(NC(=O)/C(C#N)=C\c2ccc(-c3ccc(Cl)cc3)o2)c(C)c1 -19.6%
